Data taken from a collection of fitness landscapes (doi:10.1016/j.celrep.2020.107928).
The full ranking holds about 81,000 sequences; the median of “one-hybrid fitness for binding parS DNA” is about -0.17, and the highest 2% start at about 0.51. This is one part of the list.

B1: Caulobacter ParB omega fusion; a variant is named by its letters at X, in order, B8GW30 (parent)
chain: MESVVVGEPGMSEGRRGLGRGLSALLGEVDAAPAQAPGEQLGGSREAPIEILQRNPDQPRRTFREEDLEDLSNSIREKGVLQPILVRPSPDTAGEYQIVAGERAWRAAQRAGLKTVPIMVRELDDLAVLEIGIIENVQRADLNVLEEALSYKVLMEKFERTQENIAQTIGKSXSHVANXMRLLXLPDEVQSYLVSGELTAXHARAIAAAADPVALAKQIIEGGLSVRETEALARKAPNLSAGKSKGGRPPRVKDTDTQALESDLSSVLGLDVSIDHRGSTGTLTITYATLEQLDDLCNRLTRGI

Variants of: B1
Assay: one-hybrid fitness for binding parS DNA (scaled: cognate 1, non-cognate 0); higher = stronger binding
Conditions: with parS DNA site
In short: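 On M9-minus-histidine containing 0.1 mM IPTG and 5 mM 3-AT, E. coli USO cells with a HIS3 reporter, site 19 bp from the promoter, grew 48 hours at 37°C to select Caulobacter ParB libraries randomised at four specificity codons. Plasmids from before and after were Illumina-sequenced, with three replicate libraries pooled and variants under 10 reads left out. Fitness is the log change in variant-to-wild-type read ratio, rescaled against cognate and non-cognate.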

| Variant | one-hybrid fitness for binding parS DNA |
| --- | --- |
| NRGA | ≤ 0.2 |
| WLAG | ≤ 0.2 |
| NHAF | ≤ 0.2 |
| LRNV | ≤ 0.2 |
| VEAQ | ≤ 0.2 |
| VGKT | ≤ 0.2 |
| GRGL | ≤ 0.2 |
| IGNN | ≤ 0.2 |
| VHMY | ≤ 0.2 |
| QQHV | ≤ 0.2 |
| PWAL | ≤ 0.2 |
| KLNP | ≤ 0.2 |
| HARG | ≤ 0.2 |
| KCKP | ≤ 0.2 |
| IQYE | ≤ 0.2 |
| RSIA | 0.474 |
| THCG | ≤ 0.2 |
| AYAN | ≤ 0.2 |
| LDIY | ≤ 0.2 |
| DPCR | ≤ 0.2 |
| SHKI | ≤ 0.2 |
| YPCG | ≤ 0.2 |
| QFLT | ≤ 0.2 |
| KMDS | ≤ 0.2 |

| Variant | one-hybrid fitness for binding parS DNA |
| --- | --- |
| PESD | ≤ 0.2 |
| LVGE | ≤ 0.2 |
| DHRQ | ≤ 0.2 |
| GWCG | ≤ 0.2 |
| GTEE | ≤ 0.2 |
| AQKQ | ≤ 0.2 |
| ALKG | ≤ 0.2 |
| ILTT | ≤ 0.2 |
| YAGG | ≤ 0.2 |
| RAKY | 0.644 |
| VRSS | ≤ 0.2 |
| LMRL | ≤ 0.2 |
| TIRH | ≤ 0.2 |
| NELR | ≤ 0.2 |
| PMSY | ≤ 0.2 |
| QMSE | ≤ 0.2 |
| HAWT | ≤ 0.2 |
| ENYK | ≤ 0.2 |
| EHTT | ≤ 0.2 |
| KMLK | ≤ 0.2 |
| GPHT | ≤ 0.2 |
| RKTD | ≤ 0.2 |
| MHPF | ≤ 0.2 |
| FRFC | ≤ 0.2 |

| Variant | one-hybrid fitness for binding parS DNA |
| --- | --- |
| CQHW | ≤ 0.2 |
| YFLR | ≤ 0.2 |
| SCLK | ≤ 0.2 |
| CSQG | ≤ 0.2 |
| LYDW | ≤ 0.2 |
| WFWS | ≤ 0.2 |
| AIDD | ≤ 0.2 |
| KAES | ≤ 0.2 |
| DHRY | ≤ 0.2 |
| CSQN | ≤ 0.2 |
| THQN | ≤ 0.2 |
| PYSH | ≤ 0.2 |
| SGHP | ≤ 0.2 |
| AVKS | ≤ 0.2 |
| QVRC | ≤ 0.2 |
| QTIY | ≤ 0.2 |
| MSNK | ≤ 0.2 |
| STRK | ≤ 0.2 |
| RIVF | 0.378 |
| RMLI | ≤ 0.2 |
| AAPC | ≤ 0.2 |
| PMMV | ≤ 0.2 |
| NCHW | ≤ 0.2 |
| NIAA | ≤ 0.2 |

| Variant | one-hybrid fitness for binding parS DNA |
| --- | --- |
| TGEV | ≤ 0.2 |
| VYNQ | ≤ 0.2 |
| TVSI | ≤ 0.2 |
| PPIG | ≤ 0.2 |
| PACW | ≤ 0.2 |
| FREP | ≤ 0.2 |
| KMLC | ≤ 0.2 |
| TFSE | ≤ 0.2 |
| PNET | ≤ 0.2 |
| WTVT | ≤ 0.2 |
| MTLR | ≤ 0.2 |
| QGQG | ≤ 0.2 |
| QGWR | ≤ 0.2 |
| MQAT | ≤ 0.2 |
| RDFA | ≤ 0.2 |
| NGEN | ≤ 0.2 |
| RFEM | 0.246 |
| YAPE | ≤ 0.2 |
| PPQE | ≤ 0.2 |
| GQHW | ≤ 0.2 |
| RKIG | 0.855 |
| ALRN | ≤ 0.2 |
| LISA | ≤ 0.2 |
| LRTE | ≤ 0.2 |

| Variant | one-hybrid fitness for binding parS DNA |
| --- | --- |
| GLGP | ≤ 0.2 |
| FRGE | ≤ 0.2 |
| MIPG | ≤ 0.2 |
| EKES | ≤ 0.2 |
| NLGV | ≤ 0.2 |
| QPHR | ≤ 0.2 |
| PLWR | ≤ 0.2 |
| IVFG | ≤ 0.2 |
| TAEL | ≤ 0.2 |
| LHYR | ≤ 0.2 |
| QVTK | ≤ 0.2 |
| PGGV | ≤ 0.2 |
| KNRS | ≤ 0.2 |
| PPRA | ≤ 0.2 |
| QGNY | ≤ 0.2 |
| MIYS | ≤ 0.2 |
| PHVV | ≤ 0.2 |
| NLGR | ≤ 0.2 |
| QTIT | ≤ 0.2 |
| ENKN | ≤ 0.2 |
| MRPR | ≤ 0.2 |
| RCYC | 1 |
| RKDV | ≤ 0.2 |
| MTVA | ≤ 0.2 |

| Variant | one-hybrid fitness for binding parS DNA |
| --- | --- |
| LSFS | ≤ 0.2 |
| NHAS | ≤ 0.2 |
| FFAG | ≤ 0.2 |
| DPKS | ≤ 0.2 |
| RRPI | ≤ 0.2 |
| EVDT | ≤ 0.2 |
| RDET | ≤ 0.2 |
| YPLK | ≤ 0.2 |
| ERGW | ≤ 0.2 |
| HQTV | ≤ 0.2 |
| AAYG | ≤ 0.2 |
| ELWG | ≤ 0.2 |
| NMRA | ≤ 0.2 |
| PGTF | ≤ 0.2 |
| MCGS | ≤ 0.2 |
| DATC | ≤ 0.2 |
| LQRA | ≤ 0.2 |
| LDEG | ≤ 0.2 |
| ADLA | ≤ 0.2 |
| TMHS | ≤ 0.2 |
| DGPI | ≤ 0.2 |
| RKKS | 0.69 |
| PNFS | ≤ 0.2 |
| SELY | ≤ 0.2 |

| Variant | one-hybrid fitness for binding parS DNA |
| --- | --- |
| GERD | ≤ 0.2 |
| APIH | ≤ 0.2 |
| NKVG | ≤ 0.2 |
| RWSE | ≤ 0.2 |
| YAVI | ≤ 0.2 |
| MRDT | ≤ 0.2 |
| KQSG | ≤ 0.2 |
| FIQR | ≤ 0.2 |
| RIDG | 0.831 |
| CKIG | ≤ 0.2 |
| SPTS | ≤ 0.2 |
| IPVI | ≤ 0.2 |
| FAPT | ≤ 0.2 |
| PGPS | ≤ 0.2 |
| TRCH | ≤ 0.2 |
| SICT | ≤ 0.2 |
| PPVL | ≤ 0.2 |
| LHAC | ≤ 0.2 |
| HCRY | ≤ 0.2 |
| SQDC | ≤ 0.2 |
| RVMG | 0.971 |
| FVEG | ≤ 0.2 |
| APWS | ≤ 0.2 |
| CPRE | ≤ 0.2 |

| Variant | one-hybrid fitness for binding parS DNA |
| --- | --- |
| KISE | ≤ 0.2 |
| SGMW | ≤ 0.2 |
| IRYW | ≤ 0.2 |
| NLSK | ≤ 0.2 |
| RDDE | ≤ 0.2 |
| DLLA | ≤ 0.2 |
| QTCF | ≤ 0.2 |
| MAEN | ≤ 0.2 |
| QILH | ≤ 0.2 |
| FPAT | ≤ 0.2 |
| SEFS | ≤ 0.2 |
| QQRN | ≤ 0.2 |
| YTLT | ≤ 0.2 |
| HASE | ≤ 0.2 |
| LPFI | ≤ 0.2 |
| DWNA | ≤ 0.2 |
| PYGR | ≤ 0.2 |
| APLQ | ≤ 0.2 |
| PFWN | ≤ 0.2 |
| RPLC | ≤ 0.2 |
| RNMI | ≤ 0.2 |
| YNRC | ≤ 0.2 |
| RNGL | ≤ 0.2 |
| VRAE | ≤ 0.2 |

| Variant | one-hybrid fitness for binding parS DNA |
| --- | --- |
| NALN | ≤ 0.2 |
| DLCC | ≤ 0.2 |
| TLAI | ≤ 0.2 |
| QGDI | ≤ 0.2 |
| RPSP | ≤ 0.2 |
| DVVT | ≤ 0.2 |
| KGWT | ≤ 0.2 |
| HPED | ≤ 0.2 |
| RIVP | ≤ 0.2 |
| ELDV | ≤ 0.2 |
| ARCL | ≤ 0.2 |
| RQIM | ≤ 0.2 |
| CVPG | ≤ 0.2 |
| ALSY | ≤ 0.2 |
| NNYL | ≤ 0.2 |
| HKSY | ≤ 0.2 |
| VVLP | ≤ 0.2 |
| WRAV | ≤ 0.2 |
| PLWH | ≤ 0.2 |
| RAWS | 1.05 |
| TPVF | ≤ 0.2 |
| YITC | ≤ 0.2 |
| SMAK | ≤ 0.2 |
| HSQW | ≤ 0.2 |

| Variant | one-hybrid fitness for binding parS DNA |
| --- | --- |
| KGRR | ≤ 0.2 |
| WAPY | ≤ 0.2 |
| QKFP | ≤ 0.2 |
| QMMF | ≤ 0.2 |
| TNDF | ≤ 0.2 |
| QPFA | ≤ 0.2 |
| KYSV | ≤ 0.2 |
| NIWT | ≤ 0.2 |
| LHWL | ≤ 0.2 |
| FWFG | ≤ 0.2 |
| VTHF | ≤ 0.2 |
| SLLY | ≤ 0.2 |
| TMRI | ≤ 0.2 |
| ERFA | ≤ 0.2 |
| VRYC | ≤ 0.2 |
| PQVE | ≤ 0.2 |
| CYMT | ≤ 0.2 |
| KNIL | ≤ 0.2 |
| PIGS | ≤ 0.2 |
| KMPS | ≤ 0.2 |
| RESN | ≤ 0.2 |
| GAGL | ≤ 0.2 |
| VDHT | ≤ 0.2 |
| RIIN | 0.379 |

| Variant | one-hybrid fitness for binding parS DNA |
| --- | --- |
| QEVE | ≤ 0.2 |
| GDVT | ≤ 0.2 |
| QLCW | ≤ 0.2 |
| PCMC | ≤ 0.2 |
| RHGR | ≤ 0.2 |
| LYTY | ≤ 0.2 |
| ECRC | ≤ 0.2 |
| RTTW | 0.239 |
| QNDC | ≤ 0.2 |
| RQGS | 0.978 |
| PFAV | ≤ 0.2 |
| DAMR | ≤ 0.2 |
| TLAK | ≤ 0.2 |
| TQFR | ≤ 0.2 |
| ADVF | ≤ 0.2 |
| PQSS | ≤ 0.2 |
| PCKT | ≤ 0.2 |
| QSRY | ≤ 0.2 |
| NPGR | ≤ 0.2 |
| ALLV | ≤ 0.2 |
| RTLQ | ≤ 0.2 |
| EQAS | ≤ 0.2 |
| CNWT | ≤ 0.2 |
| SFLA | ≤ 0.2 |

| Variant | one-hybrid fitness for binding parS DNA |
| --- | --- |
| LHFR | ≤ 0.2 |
| PITF | ≤ 0.2 |
| RVYI | ≤ 0.2 |
| CFYV | ≤ 0.2 |
| SDIC | ≤ 0.2 |
| ESTW | ≤ 0.2 |
| RKKG | 0.802 |
| MLET | ≤ 0.2 |
| GVVA | ≤ 0.2 |
| SMTY | ≤ 0.2 |
| QVQH | ≤ 0.2 |
| QQTE | ≤ 0.2 |
| PQHK | ≤ 0.2 |
| WVRA | ≤ 0.2 |
| RPED | ≤ 0.2 |
| WGNH | ≤ 0.2 |
| TPHE | ≤ 0.2 |
| QKRF | ≤ 0.2 |
| HKVV | ≤ 0.2 |
| AIKM | ≤ 0.2 |
| LHNV | ≤ 0.2 |
| QNGI | ≤ 0.2 |
| TEQT | ≤ 0.2 |
| LTCM | ≤ 0.2 |

| Variant | one-hybrid fitness for binding parS DNA |
| --- | --- |
| YSWC | ≤ 0.2 |
| EMLK | ≤ 0.2 |
| PTPK | ≤ 0.2 |
| SHQQ | ≤ 0.2 |
| PYSK | ≤ 0.2 |
| RMTL | ≤ 0.2 |
| HHTD | ≤ 0.2 |
| RWCT | 0.611 |
| KTTC | ≤ 0.2 |
| HSQY | ≤ 0.2 |
| HMVI | ≤ 0.2 |
| YNKV | ≤ 0.2 |
| TNPD | ≤ 0.2 |
| YNTT | ≤ 0.2 |
| GGLV | ≤ 0.2 |
| DTFC | ≤ 0.2 |
| FRVL | ≤ 0.2 |
| SMGI | ≤ 0.2 |
